Assay results published in a compilation of properties of binary mixtures (doi:10.1524/zpch.2013.0328).
Some of these densities may be calculated back from excess volumes.

Assay: xn = mol fraction of the nth substance listed
Settings: 100 kPa

CC(C)C[P+](C)(CC(C)C)CC(C)C.Cc1ccc(S(=O)(=O)[O-])cc1 + O
mass density (298.15 K, x1 = 0.4387): 1073.9 kg/m3
mass density (303.15 K, x1 = 0.4387): 1069.2 kg/m3
mass density (303.15 K, x1 = 0.9022): 1069.2 kg/m3
mass density (313.15 K, x1 = 0.4387): 1061 kg/m3
mass density (313.15 K, x1 = 0.9022): 1062.8 kg/m3
mass density (323.15 K, x1 = 0.4387): 1054.6 kg/m3
mass density (323.15 K, x1 = 0.9022): 1056.7 kg/m3
mass density (333.15 K, x1 = 0.4387): 1048.2 kg/m3
mass density (343.15 K, x1 = 0.4387): 1041.8 kg/m3
mass density (343.15 K, x1 = 0.9022): 1044.8 kg/m3
mass density (353.15 K, x1 = 0.4387): 1035.3 kg/m3

CC(CC(C)(C)C)CP(=O)([O-])CC(C)CC(C)(C)C.CCCCCCCCCCCCCC[P+](CCCCCC)(CCCCCC)CCCCCC + O
mass density (298.15 K, x1 = 0.7942): 887.5 kg/m3
mass density (303.15 K, x1 = 0.1299): 905.1 kg/m3
mass density (303.15 K, x1 = 0.7942): 884.4 kg/m3
mass density (313.15 K, x1 = 0.1299): 898.4 kg/m3
mass density (313.15 K, x1 = 0.7942): 878.3 kg/m3
mass density (323.15 K, x1 = 0.1299): 891.6 kg/m3
mass density (333.15 K, x1 = 0.1299): 884.8 kg/m3
mass density (333.15 K, x1 = 0.7942): 866.4 kg/m3
mass density (343.15 K, x1 = 0.1299): 877.9 kg/m3
mass density (343.15 K, x1 = 0.7942): 860.4 kg/m3
mass density (353.15 K, x1 = 0.1299): 870.9 kg/m3
mass density (353.15 K, x1 = 0.7942): 854.5 kg/m3

CCCCCCCCCCCCCC[P+](CCCC)(CCCC)CCCC.CCCCCCCCCCCCc1ccc(S(=O)(=O)[O-])cc1 + O
mass density (298.15 K, x1 = 0.3452): 953.3 kg/m3
mass density (303.15 K, x1 = 0.3452): 950 kg/m3
mass density (303.15 K, x1 = 0.892): 952.5 kg/m3
mass density (313.15 K, x1 = 0.3452): 943.4 kg/m3
mass density (313.15 K, x1 = 0.892): 942.8 kg/m3
mass density (323.15 K, x1 = 0.892): 936.6 kg/m3
mass density (333.15 K, x1 = 0.3452): 930.4 kg/m3
mass density (333.15 K, x1 = 0.892): 930.4 kg/m3
mass density (343.15 K, x1 = 0.3452): 923.8 kg/m3
mass density (343.15 K, x1 = 0.892): 924.3 kg/m3
mass density (353.15 K, x1 = 0.3452): 917.2 kg/m3

CCCCCCCCCCCCCC[P+](CCCCCC)(CCCCCC)CCCCCC.N#C[N-]C#N + O
mass density (303.15 K, x1 = 0.551): 898.1 kg/m3
mass density (313.15 K, x1 = 0.551): 892.2 kg/m3
mass density (313.15 K, x1 = 0.8444): 891.1 kg/m3
mass density (323.15 K, x1 = 0.551): 886.2 kg/m3
mass density (323.15 K, x1 = 0.8444): 885.5 kg/m3
mass density (333.15 K, x1 = 0.551): 880.2 kg/m3
mass density (333.15 K, x1 = 0.8444): 879.9 kg/m3
mass density (343.15 K, x1 = 0.551): 874.3 kg/m3
mass density (343.15 K, x1 = 0.8444): 874.2 kg/m3
mass density (353.15 K, x1 = 0.551): 868.2 kg/m3
mass density (353.15 K, x1 = 0.8444): 868.6 kg/m3

CCCCCCCC[N+](C)(CCCCCCCC)CCCCCCCC.O=S(=O)([N-]S(=O)(=O)C(F)(F)F)C(F)(F)F + O
mass density (298.15 K, x1 = 0.8467): 1107.2 kg/m3
mass density (303.15 K, x1 = 0.8467): 1103 kg/m3
mass density (323.15 K, x1 = 0.8467): 1088.5 kg/m3
mass density (333.15 K, x1 = 0.8467): 1081.2 kg/m3
mass density (353.15 K, x1 = 0.8467): 1066.5 kg/m3

CC[n+]1ccn(C)c1.O=S(=O)([N-]S(=O)(=O)C(F)(F)F)C(F)(F)F + O
mass density (298.15 K, x1 = 0.7269): 1502 kg/m3
mass density (303.15 K, x1 = 0.7269): 1497 kg/m3
mass density (303.15 K, x2 = 0.0086): 1513 kg/m3
mass density (313.15 K, x1 = 0.7269): 1487 kg/m3
mass density (313.15 K, x2 = 0.0086): 1503 kg/m3
mass density (323.15 K, x1 = 0.7269): 1477 kg/m3
mass density (333.15 K, x2 = 0.0086): 1484 kg/m3
mass density (343.15 K, x1 = 0.7269): 1456 kg/m3
mass density (343.15 K, x2 = 0.0086): 1474 kg/m3
